The source of these data is article PMC4336329 (PLoS ONE, 2015).

Hit rate of the full screen: of about 310,000 compounds, about 14,000 (4.5%) showed an effect of 50% or more. The effect is printed as a negative number. Some of the results follow.
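Further: peak tail current of the secondary pulse compared with the same well before compound.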

The target of this test is human ether-à-go-go-related gene (hERG) potassium channel (human, UniProt Q12809). Briefly: primary screen, population patch clamp on CHO cells stably expressing hERG.
human ether-à-go-go-related gene (hERG) potassium channel, sequence (Q12809 whole entry, looked up): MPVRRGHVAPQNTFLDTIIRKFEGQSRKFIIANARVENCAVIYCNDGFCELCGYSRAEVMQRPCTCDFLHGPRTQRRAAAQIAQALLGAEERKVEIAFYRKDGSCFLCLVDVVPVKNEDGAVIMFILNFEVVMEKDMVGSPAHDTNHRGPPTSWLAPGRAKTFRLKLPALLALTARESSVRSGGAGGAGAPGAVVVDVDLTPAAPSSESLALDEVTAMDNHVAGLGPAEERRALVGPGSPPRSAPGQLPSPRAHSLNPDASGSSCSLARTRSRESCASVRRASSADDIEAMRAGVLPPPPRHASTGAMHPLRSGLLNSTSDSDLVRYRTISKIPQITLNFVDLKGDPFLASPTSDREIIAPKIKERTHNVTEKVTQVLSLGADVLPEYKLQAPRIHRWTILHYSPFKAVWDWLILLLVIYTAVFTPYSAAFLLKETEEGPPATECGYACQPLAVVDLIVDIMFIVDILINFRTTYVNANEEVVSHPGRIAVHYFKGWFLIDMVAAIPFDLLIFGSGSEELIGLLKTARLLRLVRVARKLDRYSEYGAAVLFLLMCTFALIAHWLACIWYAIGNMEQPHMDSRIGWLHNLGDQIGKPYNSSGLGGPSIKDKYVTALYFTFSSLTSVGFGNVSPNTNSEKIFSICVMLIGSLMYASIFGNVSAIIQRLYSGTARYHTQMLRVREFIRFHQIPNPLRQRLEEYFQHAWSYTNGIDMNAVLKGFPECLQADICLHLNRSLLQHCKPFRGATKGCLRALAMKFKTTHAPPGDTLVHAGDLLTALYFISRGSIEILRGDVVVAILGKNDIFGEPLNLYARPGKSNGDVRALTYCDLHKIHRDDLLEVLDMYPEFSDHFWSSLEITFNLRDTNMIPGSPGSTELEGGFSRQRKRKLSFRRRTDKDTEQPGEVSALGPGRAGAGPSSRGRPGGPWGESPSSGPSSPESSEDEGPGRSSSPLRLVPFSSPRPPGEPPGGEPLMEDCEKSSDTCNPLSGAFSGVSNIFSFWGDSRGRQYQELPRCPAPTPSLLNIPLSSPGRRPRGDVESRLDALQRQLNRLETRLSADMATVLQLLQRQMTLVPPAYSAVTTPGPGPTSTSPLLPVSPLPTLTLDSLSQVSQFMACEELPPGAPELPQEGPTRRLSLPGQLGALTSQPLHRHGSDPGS
For `Cc1ccccc1NC(=O)c1ccc2snnc2c1`, the “hERG current change (%, negative = inhibition) at 10uM” value is listed as -10.6%.
The value for `CC1CCCC1/C(=N/O)c1ccccc1` (stereo not drawn) was 7.75%; that for `CCn1c(SCc2ccccc2Cl)nc2ccccc21` was -8.43%; that for `Cn1c(N2CCOCC2)c(C=O)c2ccccc21` was -12.9%.
`COCCNc1ncnc2c1cnn2Cc1ccccc1Cl`: the “hERG current change (%, negative = inhibition) at 10uM” value is recorded as 11.3%.
The value for `CCN(CC)S(=O)(=O)c1ccc(C)c(NC(=S)N2CCN(Cc3ccc4c(c3)OCO4)CC2)c1` was -13.4%.
With `COC(=O)c1cccc(NC(=O)CCN2C(=O)C3CC=CCC3C2=O)c1` (stereo not drawn), the “hERG current change (%, negative = inhibition) at 10uM” value is listed as -0.0493%.
As for `O=C(Nc1ccc(N2CCOCC2)cc1N1CCOCC1)c1ncoc1-c1cccc(F)c1`, the figure is -9.18%; as for `COCCNC(=O)c1ccc2c(=O)n(CCOC)c(=O)[nH]c2c1`, 13.6%; as for `COC(=O)Cc1ccc(NC(=S)Nc2ccc(N3CCOCC3)cc2)cc1`, -7.44%.
As for `COc1cc2nc(C3CCC3)n(NC(=O)C3CCCC(OC)C3)c(=O)c2cc1OC` (stereo not drawn), the figure is -4.82%; as for `CSc1nc(C)c(C(=O)Nc2ccccc2)c(C)c1C#N`, 3.21%.
Turning to `COC(=O)c1ccc(CNC(=O)COC(=O)c2ccc(N(C)C)cc2)cc1`, the “hERG current change (%, negative = inhibition) at 10uM” value stood at 30.3%.
As for `CC(C)n1c(=O)c(C=Nc2ccc(Cl)cc2)c(O)n(Cc2ccco2)c1=O`, the figure is -5.75%; as for `O=C(COC(=O)/C=C/c1cccs1)NC1CCCCC1`, -6.27%.
The value for `CCCn1c(-c2cc(OC)c(OC)c(OC)c2)nc2nc3ccccc3nc21` was -37.5%.
As for `CCOC(=O)c1c(C)oc2c(CN3CCN(C)CC3)c(Br)c(OC)c(O)c12.Cl`, the figure is -26.2%; as for `Cc1cc(C(=O)CSc2n[nH]c(-c3ccccc3F)n2)c(C)n1Cc1cccs1`, 4.84%.
In the case of `CC(=O)OC1(c2ccccc2)CCN(C)C(C)C1C.Cl` (stereo not drawn), the “hERG current change (%, negative = inhibition) at 10uM” value is 11.8%.
`Cc1cc(C(=O)Nc2ccccn2)cs1`: the “hERG current change (%, negative = inhibition) at 10uM” value is reported as 3.35%.
As for `COc1ccc(C2N=C(N)N=C(N)N2c2ccc(C)cc2)cc1.Cl` (stereo not drawn), the figure is -1.45%; as for `CCOC(=O)CNC(=O)N1CCCC(CNS(=O)(=O)c2cccs2)C1` (stereo not drawn), 45.9%; as for `CCN(CC)CC.CN1C=CC=C/C1=C1\SC(=S)N(CC(=O)O)C1=O`, 11.6%.
As for `O=C(Nc1cccc2ccccc12)NC1CCCc2ccccc21` (stereo not drawn), the figure is 12.1%; as for `O=C(Nc1cccc([N+](=O)[O-])c1)c1ccc2nsnc2c1`, -8.11%.
Regarding `Cc1ccc(C(=O)CSc2cc(C)[nH]c(=O)n2)cc1`, the “hERG current change (%, negative = inhibition) at 10uM” value is listed as 6.76%.
For `COc1cc(O)c(C(CC(=O)N2CCOCC2)c2ccc(N(C)C)cc2)c(OC)c1` (stereo not drawn), the “hERG current change (%, negative = inhibition) at 10uM” value amounted to 19.2%.
As for `O=C(c1ccc(O)cc1)c1ccc(Cl)cc1`, the “hERG current change (%, negative = inhibition) at 10uM” value is -19%.
As for `COc1ccccc1/C=C1\Oc2cc(OC(=O)N3CCOCC3)ccc2C1=O`, the figure is 20.4%; as for `Cn1cccc1Cc1nnc(SCC(=O)N2CCCCCC2)n1-c1ccc(F)cc1`, -7.3%; as for `COCCCNC(=O)C1CCN(c2nc(C)cc(C)n2)CC1`, 5.94%.
As for `O=C(c1ccc(S(=O)(=O)N2CCc3ccccc3C2)cc1)N1CCCCC1`, the figure is -22.2%; as for `COc1cc(/C=C\C(=O)OCn2nnc3ccccc3c2=O)cc(OC)c1OC`, -6.44%.
The value for `COc1cc(OC)cc(C(=O)NCCCCNC(=O)c2cc(OC)cc(OC)c2)c1` was 4.94%; that for `COc1cc(/C=C/c2nc3ccccc3s2)cc(OC)c1O` was -36.7%; that for `Cc1ccc(C(=O)N/C(=C/c2ccccc2)C(=O)NCC2CCCO2)cc1` (stereo not drawn) was -21.7%.
With `NC(=O)C(Cc1ccccc1)NC(=O)C12CC3CC(CC(C3)C1)C2` (stereo not drawn), the “hERG current change (%, negative = inhibition) at 10uM” value is on record as 11.6%.
As for `Cl.O=C(CN1C2=NCCCN2c2ccccc21)c1ccc(Cl)cc1Cl`, the “hERG current change (%, negative = inhibition) at 10uM” value is recorded as -79.6%.
The value for `Cc1cccc(N2CCN(C(=O)c3cccc(N4CCCC4=O)c3)CC2)c1C` was -17.7%; that for `C/C(=N\OCC(=O)Nc1ccc2c(c1)OCCO2)c1ccc2c(c1)OCCO2` was -4.5%; that for `CC1=CC(=C(C#N)C#N)C=C(C)N1CCC(C)C` was 14.7%.
For the compound `CC(=O)CCc1c[nH]c2c(C(=O)O)cccc12`, the “hERG current change (%, negative = inhibition) at 10uM” value was found to be 5.11%.
As for `COc1ccc(NC(=O)/C(=C\c2cccs2)NC(=O)c2ccco2)cc1`, the figure is -5.67%; as for `Cc1nc(NCCc2ccccc2F)c(C#N)c(C)c1[N+](=O)[O-]`, 14.3%.
For the compound `COc1ccc(NC(=O)c2oc3ccc(S(=O)(=O)N4CCOCC4)cc3c2C)cc1`, the “hERG current change (%, negative = inhibition) at 10uM” value is reported as 3.58%.
As for `CN(C)S(=O)(=O)N1CCN(c2ccccc2)CC1`, the figure is -1.78%; as for `CN(C)C(=O)C1CC(=O)OC12CCCCC2` (stereo not drawn), 4.57%; as for `CC(C)=CCC/C(C)=C/COc1ccc2ccc(=O)oc2c1`, -2.41%.
The value for `Cc1[nH]c2ccc(F)cc2c1CCN(Cc1cccnc1)C(=S)Nc1ccc(F)cc1` was -34.4%; that for `S=C(NCCc1ccccc1)N/N=C/c1ccc(Cl)cc1` was 13.6%; that for `COCCCNC(=O)c1ccc(CNS(=O)(=O)c2ccc(NC(C)=O)cc2)cc1` was 11.8%.
As for `Cc1ccc(-c2csc(N(CCCN(C)C)C(=O)c3ccco3)n2)cc1.Cl`, the figure is -74.8%; as for `Nc1ncc(-c2ccccc2)c(-c2ccc(O)cc2O)n1`, -12.4%; as for `CCN(C(=O)/C=C/c1ccc(OC)cc1)C1CCCCC1`, -0.943%.
On to `Oc1c(Br)cc(C=Nc2ccc3nc(-c4ccccc4)[nH]c3c2)c(O)c1Br`, for which the “hERG current change (%, negative = inhibition) at 10uM” value was determined as 18%.
As for `O=C(COC(=O)c1nc(Cl)ccc1Cl)NC(=O)c1ccccc1`, the figure is -4.46%; as for `O=C1c2ccccc2C2(c3ccccc3)NCCCN12` (stereo not drawn), 19%.
Consider `CC(NC(=O)CN(c1ccc(F)cc1)S(C)(=O)=O)c1ccccc1` (stereo not drawn), for which the “hERG current change (%, negative = inhibition) at 10uM” value worked out at 14%.
On to `Fc1ccc(OCc2nc(-c3cccs3)no2)cc1`, for which the “hERG current change (%, negative = inhibition) at 10uM” value is given as -9.58%.
On to `COC(=O)C1=C(NC(=O)c2ccccc2C)CCS1`, for which the “hERG current change (%, negative = inhibition) at 10uM” value is 33.7%.
The value for `Cc1nc(-c2ccc(S(=O)(=O)N3CCN(C(c4ccccc4)c4ccccc4)CC3)s2)cs1` was 1.22%; that for `COc1ccccc1-n1cnnc1SCC(=O)N1CC(=O)Nc2ccccc21` was -5.42%; that for `CCN(CC(=O)NCc1ccc(F)cc1)C(=O)C(C)Oc1cccc(Cl)c1` (stereo not drawn) was -54.4%.
With `CCOc1ccc(NC(=S)N(CCN2CCOCC2)Cc2cc3cc4c(cc3[nH]c2=O)OCO4)cc1`, the “hERG current change (%, negative = inhibition) at 10uM” value is on record as -34.6%.
In the case of `O=C1CCCN1c1ccc(S(=O)(=O)O)cc1.c1nc[nH]n1`, the “hERG current change (%, negative = inhibition) at 10uM” value is 15%.
For `C#CCN(C(=O)c1cc(COc2ccc(C)c(C)c2)on1)C1CCCCC1`, the “hERG current change (%, negative = inhibition) at 10uM” value is -7.7%.
As for `CCOC(=O)c1[nH]c2ccccc2c1NC(=O)C1CCCC1`, the figure is 3.28%; as for `O=C(O)C1CCCCC1C(=O)Nc1ccc(F)cc1F` (stereo not drawn), -10.4%.
As to `O=C(CCc1ccccc1Cl)NC1CCCN(c2ccc(C(F)(F)F)cn2)C1` (stereo not drawn), the “hERG current change (%, negative = inhibition) at 10uM” value was found to be 13.4%.
As for `O=C(CCC1COc2ccccc2O1)Nc1ncccc1O` (stereo not drawn), the figure is 3.51%.
As for `O=C(CN1C(=O)NC(Cc2c[nH]c3ccccc23)C1=O)Nc1cccc(S(=O)(=O)N2CCCCCC2)c1` (stereo not drawn), the figure is 1.65%.
Consider `N#CC1=C(Nc2ccccc2Cl)SC(c2ccccc2O)NC1=O` (stereo not drawn), for which the “hERG current change (%, negative = inhibition) at 10uM” value came to 22.1%.
The value for `COc1ccc(CC(=O)Nc2ccccc2NC(=O)c2ccco2)cc1OC` was 5.87%.
The value for `CCC(Oc1ccc2c(c1)C(=O)CC(C)(C)O2)C(=O)NCCN1CCCCCC1.O=C(O)C(=O)O` (stereo not drawn) was -41.6%; that for `Cc1nccn1CCCNCc1c(C(=O)N2CCCCCCC2)nc2ccc(Cl)cn12` was -24.5%.
For `COC(=O)c1ccc(C)c(NC(=O)Cc2coc3cc(OC)ccc23)c1`, the “hERG current change (%, negative = inhibition) at 10uM” value is 3.98%.
As for `O=C(/C=C/c1cccc(C(F)(F)F)c1)N1CCN(c2ccccn2)CC1`, the figure is 1.31%.
Regarding `COc1ccc(C(C)=O)cc1CN1C(=O)NC(CC(C)C)C1=O` (stereo not drawn), the “hERG current change (%, negative = inhibition) at 10uM” value came out at 0.847%.
The value for `COC(=O)c1cccc(N2CCCC2=O)c1` was 15.9%; that for `CCOC(=O)C1(CCc2ccccc2)CCN(C(=O)Cc2nonc2C)CC1` was -21.4%.
As for `CSCCCNC(=S)Nc1cccc(S(=O)(=O)NC2=NCCC2)c1`, the figure is 32.8%.
For the compound `O=C(c1ccc2c(c1)OCO2)N1CCC2(CC1)Oc1ccc(F)cc1C(=O)C21CC(c2ccc(Cl)cc2)=NO1` (stereo not drawn), the “hERG current change (%, negative = inhibition) at 10uM” value is reported as 12.2%.
For the compound `Cc1cccc(OCC(=O)NCc2nnc3ccc(C(F)(F)F)cn23)c1C`, the “hERG current change (%, negative = inhibition) at 10uM” value is recorded as -4.38%.
In the case of `COc1ccc(C)cc1Nc1nc(N)c2cc(OC)c(OC)cc2n1`, the “hERG current change (%, negative = inhibition) at 10uM” value was -38.8%.
The value for `CCOc1ccc2oc(C(=O)NC3CCN(Cc4ccccc4)CC3)c(C)c2c1.Cl` was -15.1%.
Turning to `CC(=O)N1CCc2cc(C(=O)CN3CCN(c4ccccc4F)CC3)ccc21`, the “hERG current change (%, negative = inhibition) at 10uM” value was -3.15%.
As for `O=C(CSc1nc2ccccc2c(=O)n1-c1ccc(F)cc1F)Nc1ccc(N2CCOCC2)cc1`, the figure is -31.7%.
For the compound `COc1ccc(C(CCN)c2ccc3c(c2)OCO3)cc1` (stereo not drawn), the “hERG current change (%, negative = inhibition) at 10uM” value came out at 1.93%.
Take `CCN1C(=NCCCCO)N[C@@H](c2cccc(F)c2)C(C(=O)OC)=C1C`: the “hERG current change (%, negative = inhibition) at 10uM” value is recorded as 6.82%.
The value for `Cc1nc2ccc(-c3nc4ccccc4[nH]3)cc2[nH]1` was 7.78%.
